{"source": "the supplement of paper PMC8728848", "binders": {"B1": {"name": "BDCA2 ex-domain (Homo sapiens) (protein)", "chain": "MASHHHHHHIEGRGLNDIFEAQKIEWHESLVPRGSCPTPWTSFQSSCYFISTGMQSWTKSQKNCSVMGADLVVINTREEQDFIIQNLKRNSSYFLGLSDPGGRRHWQWVDQTPYNENVTFWHSGEPNNLDERCAIINFRSSEEWGWNDIHCHVPQKSICKMKKIY"}}, "assay_in_all_cases": "glycan array binding signal (z-score within array); higher = stronger binding", "conditions_in_all_cases": "glycan notation: IUPAC condensed, linker removed", "key": {"[1]": {"biological_target": "Neu5Ac(a2-3)Gal(b1-4)[Fuc(a1-3)]GlcNAc", "how_it_was_run": "(§1)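 Negative Z-scores can be read as non-binding. The Z-score is calculated within each array and then averaged across arrays of one protein sequence at different concentrations or buffers and across linkers. Arrays, 3228 in all, were curated from the Consortium for Functional Glycomics database and kept only where the protein sequence was available.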"}, "[2]": {"biological_target": "Neu5Ac(a2-3)Gal(b1-4)[Fuc(a1-3)]GlcNAc(b1-3)Gal", "how_it_was_run": "as §1"}, "[3]": {"biological_target": "Neu5Ac(a2-3)Gal(b1-4)[Fuc(a1-3)]GlcNAc(b1-3)Gal(b1-4)GlcNAc", "how_it_was_run": "as §1"}, "[4]": {"biological_target": "Neu5Ac(a2-3)Gal(b1-4)[Fuc(a1-3)]GlcNAc(b1-3)Gal(b1-4)[Fuc(a1-3)]GlcNAc(b1-3)Gal(b1-4)[Fuc(a1-3)]GlcNAc", "how_it_was_run": "as §1"}, "[5]": {"biological_target": "Neu5Ac(a2-3)Gal(b1-4)[Fuc(a1-3)]GlcNAc(b1-6)[Gal(b1-3)]GalNAc", "how_it_was_run": "as §1"}, "[6]": {"biological_target": "Neu5Ac(a2-3)Gal(b1-4)[Fuc(a1-3)]GlcNAc6S", "how_it_was_run": "as §1"}, "[7]": {"biological_target": "Neu5Ac(a2-3)Gal6S(b1-4)GlcNAc", "how_it_was_run": "as §1"}, "[8]": {"biological_target": "Neu5Ac(a2-3)Gal6S(b1-4)[Fuc(a1-3)]GlcNAc", "how_it_was_run": "as §1"}, "Neu5Ac(a2-3)GalNAc": {"biological_target": "Neu5Ac(a2-3)GalNAc", "how_it_was_run": "as §1"}, "[9]": {"biological_target": "Neu5Ac(a2-3)GalNAc(b1-4)GlcNAc", "how_it_was_run": "as §1"}, "[10]": {"biological_target": "Neu5Ac(a2-3)[GalNAc(b1-4)]Gal(b1-4)Glc", "how_it_was_run": "as §1"}, "[11]": {"biological_target": "Neu5Ac(a2-3)[GalNAc(b1-4)]Gal(b1-4)GlcNAc", "how_it_was_run": "as §1"}, "[12]": {"biological_target": "Neu5Ac(a2-3)[Neu5Ac(a2-6)]GalNAc", "how_it_was_run": "as §1"}, "Neu5Ac(a2-6)Gal": {"biological_target": "Neu5Ac(a2-6)Gal", "how_it_was_run": "as §1"}, "Neu5Ac(a2-6)Gal(b1-4)Glc": {"biological_target": "Neu5Ac(a2-6)Gal(b1-4)Glc", "how_it_was_run": "as §1"}, "[13]": {"biological_target": "Neu5Ac(a2-6)Gal(b1-4)GlcNAc", "how_it_was_run": "as §1"}, "[14]": {"biological_target": "Neu5Ac(a2-6)Gal(b1-4)GlcNAc(b1-2)Man(a1-3)[Gal(b1-4)GlcNAc(b1-2)Man(a1-6)]Man(b1-4)GlcNAc(b1-4)GlcNAc", "how_it_was_run": "as §1"}, "[15]": {"biological_target": "Neu5Ac(a2-6)Gal(b1-4)GlcNAc(b1-2)Man(a1-3)[GlcNAc(b1-2)Man(a1-6)]Man(b1-4)GlcNAc(b1-4)GlcNAc", "how_it_was_run": "as §1"}, "[16]": {"biological_target": "Neu5Ac(a2-6)Gal(b1-4)GlcNAc(b1-2)Man(a1-3)[GlcNAc(b1-2)Man(b1-4)GlcNAc(b1-2)Man(a1-6)]Man(b1-4)GlcNAc(b1-4)GlcNAc", "how_it_was_run": "as §1"}, "[17]": {"biological_target": "Neu5Ac(a2-6)Gal(b1-4)GlcNAc(b1-2)Man(a1-3)[Neu5Ac(a2-6)Gal(b1-4)GlcNAc(b1-2)Man(a1-6)]Man(b1-4)GlcNAc(b1-4)GlcNAc", "how_it_was_run": "as §1"}, "[18]": {"biological_target": "Neu5Ac(a2-6)Gal(b1-4)GlcNAc(b1-2)Man(a1-6)[Gal(b1-4)GlcNAc(b1-2)Man(a1-3)]Man(b1-4)GlcNAc(b1-4)GlcNAc", "how_it_was_run": "as §1"}, "[19]": {"biological_target": "Neu5Ac(a2-6)Gal(b1-4)GlcNAc(b1-2)Man(a1-6)[GlcNAc(b1-2)Man(a1-3)]Man(b1-4)GlcNAc(b1-4)GlcNAc", "how_it_was_run": "as §1"}, "[20]": {"biological_target": "Neu5Ac(a2-6)Gal(b1-4)GlcNAc(b1-3)Gal(b1-4)GlcNAc", "how_it_was_run": "as §1"}, "[21]": {"biological_target": "Neu5Ac(a2-6)Gal(b1-4)GlcNAc(b1-3)Gal(b1-4)[Fuc(a1-3)]GlcNAc(b1-3)Gal(b1-4)[Fuc(a1-3)]GlcNAc", "how_it_was_run": "as §1"}, "[22]": {"biological_target": "Neu5Ac(a2-6)Gal(b1-4)GlcNAc6S", "how_it_was_run": "as §1"}, "Neu5Ac(a2-6)GalNAc": {"biological_target": "Neu5Ac(a2-6)GalNAc", "how_it_was_run": "as §1"}, "[23]": {"biological_target": "Neu5Ac(a2-6)GalNAc(b1-4)GlcNAc", "how_it_was_run": "as §1"}, "Neu5Ac(a2-8)Neu5Ac": {"biological_target": "Neu5Ac(a2-8)Neu5Ac", "how_it_was_run": "as §1"}, "[24]": {"biological_target": "Neu5Ac(a2-8)Neu5Ac(a2-3)Gal(b1-4)Glc", "how_it_was_run": "as §1"}, "[25]": {"biological_target": "Neu5Ac(a2-8)Neu5Ac(a2-3)[GalNAc(b1-4)]Gal(b1-4)Glc", "how_it_was_run": "as §1"}, "[26]": {"biological_target": "Neu5Ac(a2-8)Neu5Ac(a2-8)Neu5Ac", "how_it_was_run": "as §1"}, "[27]": {"biological_target": "Neu5Ac(a2-8)Neu5Ac(a2-8)Neu5Ac(a2-3)Gal(b1-4)Glc", "how_it_was_run": "as §1"}, "[28]": {"biological_target": "Neu5Ac(a2-8)Neu5Ac(a2-8)Neu5Ac(a2-3)[GalNAc(b1-4)]Gal(b1-4)Glc", "how_it_was_run": "as §1"}, "[29]": {"biological_target": "Neu5Ac(a2-8)Neu5Ac(a2-8)Neu5Ac(a2-8)Neu5Ac(a2-3)[GalNAc(b1-4)]Gal(b1-4)Glc", "how_it_was_run": "as §1"}, "[30]": {"biological_target": "Neu5Ac(b2-6)Gal(b1-4)GlcNAc", "how_it_was_run": "as §1"}, "Neu5Ac(b2-6)GalNAc": {"biological_target": "Neu5Ac(b2-6)GalNAc", "how_it_was_run": "as §1"}, "[31]": {"biological_target": "Neu5Ac9Ac(a2-6)Gal(b1-4)GlcNAc", "how_it_was_run": "as §1"}, "[32]": {"biological_target": "Neu5Gc(a2-3)Gal(b1-3)GlcNAc", "how_it_was_run": "as §1"}, "[33]": {"biological_target": "Neu5Gc(a2-3)Gal(b1-3)[Fuc(a1-4)]GlcNAc", "how_it_was_run": "as §1"}, "Neu5Gc(a2-3)Gal(b1-4)Glc": {"biological_target": "Neu5Gc(a2-3)Gal(b1-4)Glc", "how_it_was_run": "as §1"}, "[34]": {"biological_target": "Neu5Gc(a2-3)Gal(b1-4)GlcNAc", "how_it_was_run": "as §1"}, "[35]": {"biological_target": "Neu5Gc(a2-3)Gal(b1-4)[Fuc(a1-3)]GlcNAc", "how_it_was_run": "as §1"}, "[36]": {"biological_target": "Neu5Gc(a2-6)Gal(b1-4)GlcNAc", "how_it_was_run": "as §1"}, "Neu5Gc(a2-6)GalNAc": {"biological_target": "Neu5Gc(a2-6)GalNAc", "how_it_was_run": "as §1"}, "[37]": {"biological_target": "Neu5Gc(b2-6)Gal(b1-4)GlcNAc", "how_it_was_run": "as §1"}}, "note": "Some of the results follow.", "data": [{"binder": "B1", "values": [{"measurement": "glycan array binding signal (z-score)", "setting": "[1]", "result": -0.385}, {"measurement": "glycan array binding signal (z-score)", "setting": "[2]", "result": -0.38}, {"measurement": "glycan array binding signal (z-score)", "setting": "[3]", "result": -0.31}, {"measurement": "glycan array binding signal (z-score)", "setting": "[4]", "result": 0.449}, {"measurement": "glycan array binding signal (z-score)", "setting": "[5]", "result": -0.218}, {"measurement": "glycan array binding signal (z-score)", "setting": "[6]", "result": -0.213}, {"measurement": "glycan array binding signal (z-score)", "setting": "[7]", "result": -0.077}, {"measurement": "glycan array binding signal (z-score)", "setting": "[8]", "result": -0.35}, {"measurement": "glycan array binding signal (z-score)", "setting": "Neu5Ac(a2-3)GalNAc", "result": 0.048}, {"measurement": "glycan array binding signal (z-score)", "setting": "[9]", "result": -0.444}, {"measurement": "glycan array binding signal (z-score)", "setting": "[10]", "result": -0.249}, {"measurement": "glycan array binding signal (z-score)", "setting": "[11]", "result": -0.148}, {"measurement": "glycan array binding signal (z-score)", "setting": "[12]", "result": -0.305}, {"measurement": "glycan array binding signal (z-score)", "setting": "Neu5Ac(a2-6)Gal", "result": -0.129}, {"measurement": "glycan array binding signal (z-score)", "setting": "Neu5Ac(a2-6)Gal(b1-4)Glc", "result": -0.272}, {"measurement": "glycan array binding signal (z-score)", "setting": "[13]", "result": -0.325}, {"measurement": "glycan array binding signal (z-score)", "setting": "[14]", "result": 2.93}, {"measurement": "glycan array binding signal (z-score)", "setting": "[15]", "result": -0.24}, {"measurement": "glycan array binding signal (z-score)", "setting": "[16]", "result": -0.323}, {"measurement": "glycan array binding signal (z-score)", "setting": "[17]", "result": -0.101}, {"measurement": "glycan array binding signal (z-score)", "setting": "[18]", "result": 0.603}, {"measurement": "glycan array binding signal (z-score)", "setting": "[19]", "result": -0.514}, {"measurement": "glycan array binding signal (z-score)", "setting": "[20]", "result": -0.657}, {"measurement": "glycan array binding signal (z-score)", "setting": "[21]", "result": 0.319}, {"measurement": "glycan array binding signal (z-score)", "setting": "[22]", "result": -0.454}, {"measurement": "glycan array binding signal (z-score)", "setting": "Neu5Ac(a2-6)GalNAc", "result": -0.431}, {"measurement": "glycan array binding signal (z-score)", "setting": "[23]", "result": -0.338}, {"measurement": "glycan array binding signal (z-score)", "setting": "Neu5Ac(a2-8)Neu5Ac", "result": 0.006}, {"measurement": "glycan array binding signal (z-score)", "setting": "[24]", "result": -0.153}, {"measurement": "glycan array binding signal (z-score)", "setting": "[25]", "result": -0.573}, {"measurement": "glycan array binding signal (z-score)", "setting": "[26]", "result": 0.01}, {"measurement": "glycan array binding signal (z-score)", "setting": "[27]", "result": -0.291}, {"measurement": "glycan array binding signal (z-score)", "setting": "[28]", "result": -0.092}, {"measurement": "glycan array binding signal (z-score)", "setting": "[29]", "result": -0.432}, {"measurement": "glycan array binding signal (z-score)", "setting": "[30]", "result": -0.353}, {"measurement": "glycan array binding signal (z-score)", "setting": "Neu5Ac(b2-6)GalNAc", "result": -0.449}, {"measurement": "glycan array binding signal (z-score)", "setting": "[31]", "result": -0.233}, {"measurement": "glycan array binding signal (z-score)", "setting": "[32]", "result": -0.274}, {"measurement": "glycan array binding signal (z-score)", "setting": "[33]", "result": -0.317}, {"measurement": "glycan array binding signal (z-score)", "setting": "Neu5Gc(a2-3)Gal(b1-4)Glc", "result": 0.321}, {"measurement": "glycan array binding signal (z-score)", "setting": "[34]", "result": 0.258}, {"measurement": "glycan array binding signal (z-score)", "setting": "[35]", "result": -0.137}, {"measurement": "glycan array binding signal (z-score)", "setting": "[36]", "result": -0.596}, {"measurement": "glycan array binding signal (z-score)", "setting": "Neu5Gc(a2-6)GalNAc", "result": -0.083}, {"measurement": "glycan array binding signal (z-score)", "setting": "[37]", "result": -0.128}]}]}
